Experimental data taken from the BET-seq Pho4 binding data (Le et al. 2018).
Some of the results follow. The energies were worked out here from pooled read counts, against the library average; single values are noisy.

These sequences were tested against T1, Pho4 (S. cerevisiae) (UniProt P07270) (assay: relative binding free energy (BET-seq); higher = weaker binding). Details: reference: library average.
T1 sequence: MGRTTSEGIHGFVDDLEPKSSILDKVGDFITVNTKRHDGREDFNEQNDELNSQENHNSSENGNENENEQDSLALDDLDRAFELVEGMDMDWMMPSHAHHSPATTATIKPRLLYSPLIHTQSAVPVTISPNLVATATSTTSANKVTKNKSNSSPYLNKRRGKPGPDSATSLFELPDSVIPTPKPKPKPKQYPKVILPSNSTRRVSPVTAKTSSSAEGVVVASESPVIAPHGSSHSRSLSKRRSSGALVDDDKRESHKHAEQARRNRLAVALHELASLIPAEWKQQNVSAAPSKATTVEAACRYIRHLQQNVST
In the case of AGGATCACGTGGTTGG, the “relative binding free energy” value is reported as 0.628 kJ/mol. In the case of GATGCCACGTGAGGGT, the “relative binding free energy” value is reported as 1.17 kJ/mol. TTTATCACGTGGGAAG was tested, and the “relative binding free energy” value was 0.502 kJ/mol. For GTTGGCACGTGGCGCA, the “relative binding free energy” value was -1 kJ/mol. In the case of AGGTGCACGTGATGCT, the “relative binding free energy” value is reported as 0.377 kJ/mol. With GTTGCCACGTGGCGTG the “relative binding free energy” value was -0.544 kJ/mol. For AGAGACACGTGTGTTT, the “relative binding free energy” value was 0 kJ/mol. With CGGGTCACGTGAGGCA the “relative binding free energy” value was 0.92 kJ/mol. CGTCACACGTGAAGGT was tested, and the “relative binding free energy” value was 1.67 kJ/mol. For TGACGCACGTGTCTGT, the “relative binding free energy” value was -0.126 kJ/mol. With GGTTACACGTGAATGA the “relative binding free energy” value was 1.13 kJ/mol. For AGTAACACGTGTGGTC, the “relative binding free energy” value was -0.209 kJ/mol. With TTTGGCACGTGGAAAT the “relative binding free energy” value was 0.335 kJ/mol. In the case of AGGTCCACGTGGTGGT, the “relative binding free energy” value is reported as -0.377 kJ/mol. AGCGTCACGTGAGGTG was tested, and the “relative binding free energy” value was 1 kJ/mol. In the case of TCGTGCACGTGTGGCT, the “relative binding free energy” value is reported as -0.167 kJ/mol. In the case of CTTTGCACGTGTTTGA, the “relative binding free energy” value is reported as -0.377 kJ/mol. For GGGTGCACGTGTTACG, the “relative binding free energy” value was 0.0837 kJ/mol. TGCGTCACGTGGGTTA was tested, and the “relative binding free energy” value was 0 kJ/mol. For AGTCTCACGTGCGGTG, the “relative binding free energy” value was 0.251 kJ/mol. In the case of TGATTCACGTGTTGTA, the “relative binding free energy” value is reported as 0.753 kJ/mol. With TGGATCACGTGCAGTG the “relative binding free energy” value was 0.544 kJ/mol. In the case of TCATGCACGTGTGTGT, the “relative binding free energy” value is reported as -0.167 kJ/mol. TGTCGCACGTGGGTGT was tested, and the “relative binding free energy” value was -0.502 kJ/mol. For GGGAGCACGTGCGAGT, the “relative binding free energy” value was -0.711 kJ/mol. In the case of TTTTGCACGTGGCCAT, the “relative binding free energy” value is reported as -0.628 kJ/mol. AAGGGCACGTGAATGA was tested, and the “relative binding free energy” value was 1.26 kJ/mol. GATGTCACGTGGTATT was tested, and the “relative binding free energy” value was 0.837 kJ/mol. With GGCTGCACGTGAGGGT the “relative binding free energy” value was 1.17 kJ/mol. For TAATGCACGTGAAGTT, the “relative binding free energy” value was 0.628 kJ/mol. For TTTACCACGTGGGAAT, the “relative binding free energy” value was 0.0418 kJ/mol. With ATCGACACGTGAGGGT the “relative binding free energy” value was 0.502 kJ/mol. In the case of GTAGTCACGTGAGGTA, the “relative binding free energy” value is reported as 1.13 kJ/mol. In the case of GTGTACACGTGTATTA, the “relative binding free energy” value is reported as 0.251 kJ/mol. For AGGGGCACGTGGCATT, the “relative binding free energy” value was -0.544 kJ/mol. With GTGGCCACGTGGTGAA the “relative binding free energy” value was -0.167 kJ/mol. With TGTATCACGTGGGGCA the “relative binding free energy” value was 0.126 kJ/mol. For CTTTGCACGTGTTTTC, the “relative binding free energy” value was 0 kJ/mol. In the case of AATGGCACGTGACAGG, the “relative binding free energy” value is reported as -0.126 kJ/mol. With ATGATCACGTGAGTTA the “relative binding free energy” value was 1.76 kJ/mol. With GGGTTCACGTGATATA the “relative binding free energy” value was 1.88 kJ/mol. CGGGGCACGTGTATCG was tested, and the “relative binding free energy” value was -0.544 kJ/mol. TGAATCACGTGCTGTG was tested, and the “relative binding free energy” value was 0.209 kJ/mol. With ATGATCACGTGGTATA the “relative binding free energy” value was 0.167 kJ/mol. In the case of GGTTGCACGTGGGGGA, the “relative binding free energy” value is reported as -0.0837 kJ/mol. In the case of TGGCGCACGTGGCGTT, the “relative binding free energy” value is reported as -0.46 kJ/mol. With TGCGTCACGTGGTGCT the “relative binding free energy” value was -0.502 kJ/mol. In the case of GGCGTCACGTGTAGAG, the “relative binding free energy” value is reported as 0.92 kJ/mol. TTAAGCACGTGTCTTT was tested, and the “relative binding free energy” value was 0.167 kJ/mol. In the case of GCCTGCACGTGGTGGT, the “relative binding free energy” value is reported as -0.209 kJ/mol. In the case of GGCGACACGTGTCGGG, the “relative binding free energy” value is reported as 1.05 kJ/mol. In the case of TTTTACACGTGACAGG, the “relative binding free energy” value is reported as 1 kJ/mol. In the case of GGGGCCACGTGGTTGC, the “relative binding free energy” value is reported as -0.544 kJ/mol. With GGTGTCACGTGAAATG the “relative binding free energy” value was 1.34 kJ/mol. With TGTGCCACGTGTTTGG the “relative binding free energy” value was -0.753 kJ/mol. In the case of CGGTGCACGTGTATGG, the “relative binding free energy” value is reported as -0.0837 kJ/mol. With GTCGTCACGTGGTTTC the “relative binding free energy” value was 0.962 kJ/mol. In the case of ATATGCACGTGAAATT, the “relative binding free energy” value is reported as 1.17 kJ/mol. With GGGAGCACGTGGAGCT the “relative binding free energy” value was -0.335 kJ/mol. ATGGCCACGTGCGGGT was tested, and the “relative binding free energy” value was -0.753 kJ/mol. With ATGTGCACGTGTCAGA the “relative binding free energy” value was 0.0418 kJ/mol. ATTTGCACGTGTCCGG was tested, and the “relative binding free energy” value was 0.126 kJ/mol. In the case of AGGGACACGTGGGCTA, the “relative binding free energy” value is reported as -0.711 kJ/mol. With TTAGACACGTGTATTA the “relative binding free energy” value was -0.0418 kJ/mol. With AACTACACGTGGGTGT the “relative binding free energy” value was -0.0837 kJ/mol. In the case of TGTGGCACGTGCTTTG, the “relative binding free energy” value is reported as -0.837 kJ/mol. In the case of GTATACACGTGCGAGG, the “relative binding free energy” value is reported as 0.167 kJ/mol. In the case of TTTGGCACGTGAGTCA, the “relative binding free energy” value is reported as 0.418 kJ/mol. In the case of CGTTGCACGTGGGGCG, the “relative binding free energy” value is reported as -0.795 kJ/mol. TCTTTCACGTGGATGT was tested, and the “relative binding free energy” value was 0.293 kJ/mol. For TAGGGCACGTGGAGTT, the “relative binding free energy” value was -0.795 kJ/mol. With GTGACCACGTGGGTTT the “relative binding free energy” value was -0.586 kJ/mol. For TAAATCACGTGGCGTT, the “relative binding free energy” value was 0.46 kJ/mol. For GTGAGCACGTGATGGG, the “relative binding free energy” value was 0.251 kJ/mol. In the case of TGTTACACGTGGTACT, the “relative binding free energy” value is reported as 0.46 kJ/mol. With TTTAGCACGTGTGTGA the “relative binding free energy” value was 0.0837 kJ/mol. With GTATGCACGTGGGGCC the “relative binding free energy” value was -0.251 kJ/mol. In the case of CGATGCACGTGTGAGG, the “relative binding free energy” value is reported as 0.293 kJ/mol. With TCTGTCACGTGGGACT the “relative binding free energy” value was 0 kJ/mol. GTGCTCACGTGGTCGT was tested, and the “relative binding free energy” value was 0.669 kJ/mol. For GGGCCCACGTGGATGG, the “relative binding free energy” value was -0.167 kJ/mol. With TCTTTCACGTGGGGAG the “relative binding free energy” value was 0.502 kJ/mol. For AGTTACACGTGGGGTT, the “relative binding free energy” value was 0.167 kJ/mol. In the case of CATGACACGTGGGGTA, the “relative binding free energy” value is reported as -0.377 kJ/mol. In the case of TGTACCACGTGGCGTG, the “relative binding free energy” value is reported as -0.669 kJ/mol. GGTGGCACGTGCAATA was tested, and the “relative binding free energy” value was 0.167 kJ/mol. GATCGCACGTGGGATT was tested, and the “relative binding free energy” value was -0.126 kJ/mol. For GGGAACACGTGGTAAG, the “relative binding free energy” value was 0.669 kJ/mol. For TAGAGCACGTGCATGT, the “relative binding free energy” value was -0.377 kJ/mol. In the case of GCTGGCACGTGTTGGA, the “relative binding free energy” value is reported as 0 kJ/mol. In the case of CGGGGCACGTGGCTGA, the “relative binding free energy” value is reported as -1.3 kJ/mol. In the case of TTGGTCACGTGGGTTC, the “relative binding free energy” value is reported as -0.251 kJ/mol. In the case of TAGTGCACGTGAGTGG, the “relative binding free energy” value is reported as 0.753 kJ/mol. For AATGCCACGTGAGTTG, the “relative binding free energy” value was 0.293 kJ/mol. ATGTACACGTGTTATG was tested, and the “relative binding free energy” value was 0.335 kJ/mol. AAGTTCACGTGTTACT was tested, and the “relative binding free energy” value was 1.38 kJ/mol. In the case of GGCAGCACGTGCGTGT, the “relative binding free energy” value is reported as -0.46 kJ/mol. With TCGTGCACGTGGAATG the “relative binding free energy” value was 0.251 kJ/mol. For CGTCTCACGTGGTGAG, the “relative binding free energy” value was 0.628 kJ/mol. In the case of AGGTTCACGTGTGGCA, the “relative binding free energy” value is reported as 1.51 kJ/mol. With GGCCGCACGTGGTTGG the “relative binding free energy” value was -0.837 kJ/mol. For GTTGCCACGTGGTAAT, the “relative binding free energy” value was -0.251 kJ/mol. With ACTCGCACGTGGTGGG the “relative binding free energy” value was -0.795 kJ/mol. For TGCTGCACGTGAGCGG, the “relative binding free energy” value was 0.711 kJ/mol. In the case of GTAAACACGTGGGGTT, the “relative binding free energy” value is reported as -0.251 kJ/mol. For TGTGGCACGTGAAATT, the “relative binding free energy” value was 0.879 kJ/mol. For GATGACACGTGTGGGG, the “relative binding free energy” value was -0.209 kJ/mol. For ATGGCCACGTGAGTTG, the “relative binding free energy” value was 1.09 kJ/mol. With GTAGGCACGTGATTGG the “relative binding free energy” value was 0.251 kJ/mol. For ATTATCACGTGTTCTG, the “relative binding free energy” value was -0.0418 kJ/mol. For AGAGGCACGTGTGTTC, the “relative binding free energy” value was 0.167 kJ/mol. In the case of ATTTTCACGTGTCTAG, the “relative binding free energy” value is reported as 1.21 kJ/mol. With GCAGACACGTGGGGGC the “relative binding free energy” value was -0.628 kJ/mol. TTCCGCACGTGTTTGG was tested, and the “relative binding free energy” value was -0.335 kJ/mol. With TTTAGCACGTGTTTAG the “relative binding free energy” value was -0.418 kJ/mol.
